Data on one molecule can be found in patent publication US20250186550A1 (HAINAN SIMCERE PHARMACEUTICAL, published 2025).

In assay [1] the target is T1, human IL-2R alpha protein (Acro, ILA-H52H9) (human, UniProt P01589 22-213, limits assumed).
T1 construct: Bought reagent coated on the ELISA plate; also called IL-2Rα; CD25
T1 sequence (looked up): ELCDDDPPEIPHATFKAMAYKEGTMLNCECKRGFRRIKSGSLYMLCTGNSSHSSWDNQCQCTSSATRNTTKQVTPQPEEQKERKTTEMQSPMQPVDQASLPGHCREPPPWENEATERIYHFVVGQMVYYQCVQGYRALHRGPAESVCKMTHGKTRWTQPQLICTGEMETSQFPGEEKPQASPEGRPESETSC
Briefly: ELISA on coated human IL-2R alpha, anti-human IgG Fc-HRP detection; formulated sample, 40° C., upright, 2 W. As for the experimental part:
(§1) (1) Coating: A carbonate buffer (50 mM Na₂CO₃—NaHCO₃, pH 9.6) with a pH of 9.6 was selected as a coating solution; human IL-2R alpha protein (Acro, ILA-H52H9) was diluted to 0.5 μg/mL with the coating solution; and the mixture was added to an ELISA plate at 100 µL/well and coated at 2-8° C. overnight (>16 h).
(§2) (2) Blocking: After the plate was washed, PBS containing 3% BSA was added to the plate at 300 μL/well, and the plate was blocked at 37° C. for 1 h and then washed.
(§3) (6) After the mixture was washed, a color development solution TMB (Thermo, 34029) was added to the ELISA plate at 100 μL/well; the resulting mixture was reacted at room temperature for 5-9 min in the dark, and then 1 M sulfuric acid was added at 100 μL/well to stop the reaction; and the plate was read within 2 min using a microplate reader, at a measurement wavelength of 450 nm and a reference wavelength of 630 nm.
A general note: An ELISA detects its analyte on a solid surface through an enzyme-linked reagent.

Assay [2] concerns the target T1, human IL-2R alpha protein (Acro, …). The assay is described as follows: ELISA on coated human IL-2R alpha, anti-human IgG Fc-HRP detection; formulated sample, 25° C., inverted, 3 M.
For assay [3] the target is unchanged. Briefly: ELISA on coated human IL-2R alpha, anti-human IgG Fc-HRP detection; formulated sample, 2~8° C., upright, T0. The protocol:
as §1, §2, §3

For assay [4] the target is unchanged. Briefly: ELISA on coated human IL-2R alpha, anti-human IgG Fc-HRP detection; formulated sample, 25° C., upright, 4 W. As for the experimental part: as §1, §2, §3
Assay [5] has the same target. The assay is described as follows: ELISA on coated human IL-2R alpha, anti-human IgG Fc-HRP detection; formulated sample, 40° C., inverted, 2 W. As for the experimental part: as §1, §2, §3
Assay [6] shares this target. The assay is described as follows: ELISA on coated human IL-2R alpha, anti-human IgG Fc-HRP detection; formulated sample, 25° C., upright, 3 M. The protocol:
as §1, §2, §3

Assay [7] has the same target. The assay is described as follows: ELISA on coated human IL-2R alpha, anti-human IgG Fc-HRP detection; formulated sample, 40° C., upright, 4 W. The protocol: as §1, §2, §3
Assay [8] shares this target. Briefly: ELISA on coated human IL-2R alpha, anti-human IgG Fc-HRP detection; formulated sample, 25° C., inverted, 4 W. The protocol: as §1, §2, §3
For assay [9] the target is unchanged. The assay is described as follows: ELISA on coated human IL-2R alpha, anti-human IgG Fc-HRP detection; formulated sample, 40° C., inverted, 4 W.
The target is the same in assay [10]. Briefly: ELISA on coated human IL-2R alpha, anti-human IgG Fc-HRP detection; formulated sample, 2~8° C., upright, 3 M.
Assay [11] has the same target. Briefly: ELISA on coated human IL-2R alpha, anti-human IgG Fc-HRP detection; formulated sample, 25° C., upright, T0. As for the experimental part: as §1, §2, §3
Assay [12] shares this target. The assay is described as follows: ELISA on coated human IL-2R alpha, anti-human IgG Fc-HRP detection; formulated sample, 25° C., inverted, T0. The protocol: as §1, §2, §3
The target is the same in assay [13]. Briefly: ELISA on coated human IL-2R alpha, anti-human IgG Fc-HRP detection; formulated sample, 40° C., inverted, T0. The protocol:
as §1, §2, §3

B1: IL2 mutant 1-2-linker-Fc (V91R/Y31V/A73L/H79Q) (Fc fusion)
chain: APTSSSTKKTQLQLEHLLLDLQMILNGINNVKNPKLTRMLTFKFYMPKKATELKHLQCLEEELKPLEEVLNLLQSKNFQLRPRDLISNINRIVLELKGSETTFMCEYADETATIVEFLNRWITFAQSIISTLTGGGGSGGGGSGGGGS[human IgG1 Fc with changes skipped]
notes: Expressed in CHO cells; also called IL2-1-2; IL2 mutant fusion protein
As to B1, the “Activity (%) ELISA (relative binding activity = EC50 of the control/EC50 of the test sample x100)” value was determined as 92% in [1]; 105% in [2]; 108% in assay [3]; 116% in assay [4]; 98% in [5]; 102% in assay [6]. Further, the “Activity (%) ELISA (relative binding activity = EC50 of the control/EC50 of the test sample x100)” value in assay [7] stood at 103%; in [8], 99%; in assay [9] it was 95%; in assay [10], 95%; in assay [11], 108%; in assay [12] it was 108%. Besides, the “Activity (%) ELISA (relative binding activity = EC50 of the control/EC50 of the test sample x100)” value in [13] is 108%.
